From the supplement of paper PMC12217912
The list shows a part of the results. Sequences were assembled here from the parent chain. Inactive controls read about 0.05.

B1: TEV protease; numbered along this chain (parent)
chain: MGESLFKGPRDYNPISSSICHLTNESDGHTTSLYGIGFGPFIITNKHLFRRNNGTLVVQSLHGVFKVKDTTTLQQHLVDGRDMIIIRMPKDFPPFPQKLKFREPQREERICLVTTNFQTKSMSSMVSDTSCTFPSGDGIFWKHWIQTKDGQCGSPLVSTRDGFIVGIHSASNFTNTNNYFTSVPKNFMELLTNQEAQQWVSGWRLNADSVLWGGHKVFMVKPEEPFQPVKEATQL

Variants of: B1
Assay: raw area under fraction-flipped curve 0-4 h after induction (AUC4h, not background-subtracted), DNA-recorder readout of cleavage of the substrate (dimensionless); higher = more cleavage of the substrate by the protease variant
Settings: temperature: 34 °C; time window: 0-4 h after rhamnose induction
Protocol: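 In vivo DNA recorder in E. coli TOP10(DE3) ΔrhaA at 34 °C. Each TEVp single-site mutant (parent TEVp 0) is paired with a single-site variant of the 7-mer TEVs (canonical ENLYFQ|S). The substrate sits between flexible linkers in a Bxb1-sfGFP-TEVs-SsrA fusion, so cleavage stabilises Bxb1 and speeds flipping of a recombination array, read by NGS. The value is the raw area under the fraction-flipped curve over 0-4 h after rhamnose induction (AUC4h), with ≥20 reads per time point. It is not background-subtracted; inactive controls average about 0.047.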
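Note: Bxb1 expression induced with 0.2% (w/v) L-rhamnose at OD600 near 0.5, cultures sampled hourly, flipped fraction per protease–substrate barcode pair counted by paired-end Illumina sequencing.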

Variant | area with substrate ENLYAQS | area with substrate ENLYDQS | area with substrate ENLYEQS | area with substrate ENLYGQS | area with substrate ENLYHQS | area with substrate ENLYKQS | area with substrate ENLYLQS | area with substrate ENLYMQS | area with substrate ENLYNQS | area with substrate ENLYPQS | area with substrate ENLYQQS | area with substrate ENLYSQS | area with substrate ENLYWQS | area with substrate ENLYYQS | area with substrate ENLYCQS | area with substrate ENLYIQS | area with substrate ENLYRQS | area with substrate ENLYTQS | area with substrate ENLYVQS
S130M | 0.0304 | 0.0801 | 0.0702 | 0.0612 | 0.073 | 0.066 | 0.0579 | 0.0729 | 0.0734 | 0.083 | 0.0453 | 0.0491 | 0.0725 | 0.0584 |  |  |  |  | 
S130H | 0.0828 | 0.0556 | 0.0527 | 0.0555 | 0.102 | 0.0808 | 0.0966 | 0.0711 | 0.0695 | 0.105 |  |  | 0.0736 | 0.06 | 0.0815 | 0.122 | 0.0739 | 0.0594 | 0.0666
S130K | 0.058 | 0.0644 | 0.0663 | 0.0698 | 0.0664 | 0.0526 |  | 0.0895 | 0.064 | 0.0881 | 0.064 | 0.0698 | 0.0896 |  | 0.0485 | 0.133 | 0.0527 | 0.0896 | 0.117
V157P | 0.0512 | 0.0449 | 0.0535 |  | 0.0539 | 0.0409 |  | 0.0453 | 0.0539 | 0.0456 | 0.0544 | 0.0636 | 0.0562 | 0.0573 |  | 0.0573 | 0.0543 | 0.0543 | 0.053
V157Q | 0.0763 |  | 0.0661 | 0.0487 | 0.0565 | 0.0754 | 0.0709 | 0.0601 | 0.0685 | 0.0285 | 0.0596 | 0.053 |  | 0.0816 | 0.0641 | 0.1 | 0.0686 |  | 0.0725
Q118P | 0.074 | 0.0635 | 0.0672 | 0.0788 | 0.0725 | 0.0476 |  |  |  | 0.0689 |  |  |  |  |  |  |  | 0.0502 | 
F140Y | 0.0802 | 0.0678 | 0.0665 |  | 0.0814 | 0.0569 |  |  | 0.0744 |  |  |  |  | 0.0672 | 0.0803 |  |  |  | 0.122
S127Q | 0.0818 | 0.0708 | 0.0551 | 0.0494 | 0.075 | 0.0628 |  | 0.086 | 0.0617 | 0.0785 | 0.0589 |  |  |  |  | 0.132 | 0.0624 | 0.0878 | 
S127W | 0.0948 | 0.0647 | 0.0576 |  | 0.0566 | 0.0362 | 0.117 |  | 0.0718 |  |  | 0.0708 | 0.0728 | 0.0722 |  | 0.126 | 0.0568 | 0.0828 | 
F101L | 0.0995 | 0.0561 | 0.0595 |  | 0.0679 |  |  |  |  | 0.0749 | 0.0615 | 0.0472 |  |  |  | 0.122 | 0.0455 |  | 0.0535
T114E | 0.0734 |  |  |  |  | 0.0162 |  |  |  |  |  |  |  | 0.0586 |  | 0.102 | 0.0703 | 0.0917 | 0.0894
T115A | 0.0741 | 0.0593 | 0.0583 |  | 0.0652 | 0.0706 |  | 0.0918 | 0.0602 | 0.0886 |  |  | 0.0619 | 0.0608 |  | 0.0463 | 0.078 |  | 0.156
P134V | 0.0724 | 0.0573 | 0.0697 | 0.0731 | 0.0274 | 0.0549 |  |  | 0.0587 | 0.0571 | 0.0756 | 0.0684 | 0.0686 |  | 0.0605 | 0.0934 | 0.0609 |  | 0.0701
C152N | 0.0694 | 0.0625 | 0.0705 |  | 0.0679 |  | 0.0642 | 0.0582 | 0.062 | 0.0669 | 0.0677 | 0.0585 | 0.0581 |  |  |  | 0.0675 |  | 
